Data reported in PubChem BioAssay AID1476 (National Center for Advancing Translational Sciences (NCATS), 2009).
Hit rate of the full screen: of about 200,000 compounds, about 4,500 (2.2%) were called active. The inconclusive results got no clear call from the source; some entries with a clear call stand among them for comparison. The call rests on the fitted dose curve; in most records, active means well fitted inhibition curve with a large enough effect; inconclusive means small, poorly fitted or top-dose-only effect, or effect the other way; inactive means flat fitted curve, though single readings scatter. Potencies beside an inconclusive call are fits to weak or partial responses and may not hold up.

target: Cruzipain (Trypanosoma cruzi) (UniProt P25779); experiment: qHTS Assay for Promiscuous and Specific Inhibitors of Cruzain (without detergent); conditions: purified cruzain, Z-FR-AMC fluorescence, no detergent; further: nearly all actives have a fitted effect of over 40% in size;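 on max response, negative = inhibition: plate controls were enzyme without inhibitor for no effect and buffer without enzyme for full effect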
Sequence of UniProt P25779 (P25779 whole entry, looked up): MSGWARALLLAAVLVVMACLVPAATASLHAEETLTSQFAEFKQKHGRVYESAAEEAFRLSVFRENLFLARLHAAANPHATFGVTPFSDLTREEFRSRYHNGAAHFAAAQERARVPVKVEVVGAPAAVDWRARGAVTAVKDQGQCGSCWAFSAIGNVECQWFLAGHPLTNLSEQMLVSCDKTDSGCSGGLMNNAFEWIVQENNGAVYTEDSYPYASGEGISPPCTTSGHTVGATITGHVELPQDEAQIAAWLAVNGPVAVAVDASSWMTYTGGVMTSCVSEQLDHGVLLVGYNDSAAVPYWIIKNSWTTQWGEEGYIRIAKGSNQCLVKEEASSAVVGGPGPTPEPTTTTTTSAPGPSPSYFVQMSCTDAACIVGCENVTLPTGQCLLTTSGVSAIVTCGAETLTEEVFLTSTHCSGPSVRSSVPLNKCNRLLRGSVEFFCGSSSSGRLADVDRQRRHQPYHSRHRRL
Summary of the method: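 Purified cruzain at 1.5 nM, pre-incubated 15 min with compound at room temperature in 100 mM sodium acetate pH 5.5, 5 mM DTT, 0.00005% Triton X-100. Reaction started with 2 uM Z-FR-AMC; AMC fluorescence increase over 60 s gives rate.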
Potency means the concentration at half of the fitted maximal effect; tags describe the fitted curve by direction and shape.

Compound | max response, negative = inhibition | Potency
COc1ccccc1CNC(=O)CN1C(=O)CCn2nc(-c3ccccc3)cc21 | inactive: 2.97% | 
CC1Cc2ccccc2N1C(=O)CSc1nnc(-c2ccc(S(=O)(=O)N3CCCC3)cc2)n1C (configuration not stated) |  | inconclusive: 39.8 µM [activator, single point]
COc1ccc(CNC(=O)c2c(O)c3cccc4c3n(c2=O)CCC4)cc1OC |  | inconclusive: 25.1 µM [activator, single point]
COc1ccc(C(=O)/C=C/Nc2ccc(C)cn2)cc1OC |  | inconclusive: 39.8 µM [activator, single point]
COc1cccc(NC(=O)C(OC(=O)/C=C/c2ccc3c(c2)OCO3)c2ccccc2)c1 (configuration not stated) |  | active: 20 µM
COc1ccc(-c2noc(CSc3nc4sc(C)c(C)c4c(=O)n3-c3ccccc3)n2)cc1 |  | active: 7.94 µM
CCN(c1ccccc1)S(=O)(=O)c1ccc2[nH]cc(C(=O)NCc3ccc(C)cc3)c(=O)c2c1 | inactive: -9.78% | 
O=C(CS(=O)(=O)c1cn(Cc2ccccc2Cl)c2ccccc12)N1CCOCC1 |  | inconclusive: 39.8 µM [activator, single point]
Cc1ccc(CN(C(=O)COc2ccc(Cl)cc2Cl)C2CCS(=O)(=O)C2)o1 (configuration not stated) |  | inconclusive: 39.8 µM [activator, single point]
Cc1[nH]c(=O)[nH]c(=O)c1S(=O)(=O)N1CCN(c2cccc(Cl)c2)CC1 |  | inconclusive: 39.8 µM [inhibitor, single point]
Cc1c(/C=N/NC(=O)c2ccc(O)cc2)c2ccccn2c1C(=O)c1ccc(F)cc1 |  | inconclusive: 31.6 µM [inhibitor, single point]
O=c1cnc2cncnc2n1Cc1ccc(F)cc1 | inactive: 1.88% | 
CCCCC1CCC(c2ccc(C(N)=O)cc2)CC1 (configuration not stated) |  | inconclusive: 12.6 µM [inhibitor, partial curve]
CCOc1ccc(N(CC(=O)Nc2ccccc2C(=O)NC(C)CC)S(C)(=O)=O)cc1 (configuration not stated) |  | inconclusive: 39.8 µM [activator, single point]
CC(=O)c1ccc(NC(=O)c2nc3ccccc3n(C)c2=O)cc1 | inactive: -4.43% | 
COC(=O)c1ccc(CSc2nc3ccccc3c(=O)n2-c2cccc(OC)c2)o1 |  | active: 25.1 µM
CCOC(=O)c1[nH]c(C)c(C(=O)Nc2ccc(Cl)cc2)c1C |  | inconclusive: 39.8 µM [inhibitor, single point]
CC(=O)N1c2ccc(Cl)cc2C2C=CCC2C1c1cccc2ccccc12 (configuration not stated) |  | inconclusive: 25.1 µM [inhibitor, single point]
CCc1ccccc1OCCSc1nnc(-c2cc(OC)c(OC)c(OC)c2)o1 | inactive: 25.4% | 
O=C(CSc1nc2ccccc2s1)Nc1ccc2c(c1)oc1ccccc12 |  | active: 15.8 µM
COc1ccc(C)cc1-n1nnnc1SCC(=O)c1cc(C)n(Cc2ccco2)c1C |  | inconclusive: 39.8 µM [inhibitor, single point]
CC(=O)C(C)Oc1ccc2c3c(c(=O)oc2c1)CCCCC3 (configuration not stated) |  | inconclusive: 31.6 µM [activator, single point]
Cc1ccc(C)c(Cn2nnc3c(=O)[nH]c(C4CCCN(C(=O)C5CCC5)C4)nc32)c1 (configuration not stated) |  | inconclusive: 31.6 µM [activator, single point]

Compound | max response, negative = inhibition | Potency
CCOC(=O)C1CCN(c2nc3ccccc3nc2C(C#N)C(=O)OC(C)COC)CC1 (configuration not stated) |  | inconclusive: 31.6 µM [activator, single point]
O=C(C1CCN(S(=O)(=O)Cc2ccccc2)CC1)N1CCN(c2ccccc2F)CC1 |  | inconclusive: 39.8 µM [activator, single point]
CC1=NOC(=O)/C1=C\c1ccc(-c2cc(Cl)ccc2Cl)o1 |  | inconclusive: 12.6 µM [activator, partial curve]
FC(F)(F)c1ccc(Oc2ccc3cc(Br)ccc3c2)nc1 |  | inconclusive: 25.1 µM [inhibitor, single point]
Cc1c(Cl)cccc1NC(=O)C(=O)NCC(c1cccnc1)N1CCN(c2ccccc2)CC1 (configuration not stated) |  | inconclusive: 39.8 µM [activator, single point]
COc1ccc([N+](=O)[O-])cc1NS(=O)(=O)c1ccccc1 | inactive: -0.46% | 
Cc1cccc(NC(=O)C2CCN(S(=O)(=O)c3ccc4c(c3)CCCC(=O)N4)CC2)c1 | inactive: 1.22% | 
CC(C)c1cc(C(N)=O)c(NC(=O)c2cccc(COc3ccc(Br)cc3)c2)s1 |  | active: 5.01 µM
CCCN(C(=O)c1sc2nc3n(c(=O)c2c1C)CCCC3)c1ccccc1C | inactive: -0.261% | 
CCOC(=O)N1CCN(Cc2nc3c(c(=O)n(C)c(=O)n3C)n2Cc2ccccc2C)CC1 |  | inconclusive: 25.1 µM [activator, partial curve]
FC(F)(F)c1ccccc1-c1cc(NCc2cccnc2)ncn1 | inactive: 18.8% | 
COc1ccc(Cn2ccc3nc(C)c(C(=O)N4CCN(c5cc(C)ccc5C)CC4)cc3c2=O)cc1 |  | inconclusive: 31.6 µM [activator, single point]
CCOC(=O)C1=C(N)Oc2c(c(=O)[nH]c3ccccc23)C1c1ccccc1 (configuration not stated) |  | inconclusive: 39.8 µM [inhibitor, single point]
COc1cc(NC(=O)c2ccco2)c(OC)cc1NC(=O)Nc1ccc(Cl)cc1 |  | inconclusive: 15.8 µM [activator, partial curve]
COCCNc1ncnc2onc(-c3ccc(F)cc3)c12 | inactive: -8.9% | 
CC(C)Oc1ccc(C(=O)N2CC(=O)Nc3ccc(F)cc3C2c2ccc(F)cc2)cc1 (configuration not stated) | inactive: -5.47% | 
O=C(Nc1nnc(-c2ccc3c(c2)CCCC3)o1)C1CCCCC1 |  | inconclusive: 39.8 µM [inhibitor, single point]
N=c1sc2ccccc2n1CCS (tested in a mixture with another compound) |  | inconclusive: 7.94 µM [inhibitor, single point]
O=C(CCN1CCCC1Cc1ccccc1)c1ccc2c(c1)OCCO2 (configuration not stated) |  | active: 20 µM
CCOc1ccc(CNC(=O)C2CCN(C(=O)c3sccc3-n3cccc3)CC2)cc1 | inactive: 1.45% | 
COc1ccc(/C=C/c2onc(C)c2S(=O)(=O)N2CCC(C(=O)N3CCCCC3)CC2)cc1 |  | inconclusive: 39.8 µM [activator, single point]
COc1ccc(NC(=O)CCCc2nnc3n(CCC(C)C)c(=O)c4sccc4n23)cc1Cl | inactive: 23.4% | 
Cc1ccc(-c2noc(CSc3nnc(C)n3-c3ccc(C)cc3)n2)cc1 |  | inconclusive: 31.6 µM [activator, single point]

Compound | max response, negative = inhibition | Potency
CCC1=C2CC[C@H]3C(=O)N(CC(=O)OC)C(=O)[C@H]3[C@H]2[C@@]2(C)C(=O)N(Cc3ccccc3)C(=O)N2C1=O | inactive: -5.07% | 
COc1ccccc1CNC(=O)CN1C(=O)c2cccnc2Oc2ccccc21 | inactive: 3.19% | 
O=C(CS(=O)(=O)c1nc(-c2ccc(Cl)cc2)cn1-c1ccccc1)Nc1ccc(F)cc1F |  | active: 25.1 µM
CC(C)(C)OC(=O)N1CC=C2C(C#N)=C(N)C(C#N)(C#N)C(c3cccs3)C2C1 (configuration not stated) |  | inconclusive: 39.8 µM [activator, single point]
CCS(=O)(=O)N1Cc2ccccc2CC1C(=O)Nc1nc2c(C)cccc2s1 (configuration not stated) |  | active: 25.1 µM
COc1ccc(/C=C/C(=O)c2ccc(NS(=O)(=O)c3ccc(C)cc3)cc2)cc1O |  | inconclusive: 12.6 µM [inhibitor, partial curve, poor fit]
Cc1ccc(NC(=O)C(Cc2ccccc2)NS(=O)(=O)c2cccs2)cc1Cl (configuration not stated) |  | active: 12.6 µM
Cc1ccc(S(=O)(=O)N2CCOCC2)cc1C(=O)OCC(=O)N1CCc2ccccc2C1 |  | inconclusive: 39.8 µM [activator, single point]
CC(Oc1ccccc1)C(=O)N1CCN(Cc2cc(=O)n3nc(-c4ccccc4Cl)sc3n2)CC1 (configuration not stated) | inactive: -1.63% | 
CCOC(=O)c1c(C)[nH]c(C)c1S(=O)(=O)NCC(=O)N1CCN(c2cc(Cl)ccc2C)CC1 |  | inconclusive: 39.8 µM [activator, single point]
CCn1c2ccccc2c2cc(/C=N/NC(=O)c3ccc(O)cc3)ccc21 |  | active: 25.1 µM
N#Cc1nc(-c2cccs2)oc1NCc1ccco1 |  | inconclusive: 31.6 µM [activator, single point]
Clc1cc(Cl)cc(Cl)c1 | inactive: -1.92% | 
COc1ccc(CC(=O)Nc2nnc(-c3cccc([N+](=O)[O-])c3)s2)cc1 |  | inconclusive: 39.8 µM [inhibitor, single point]
Cc1cn(S(=O)(=O)c2ccc(F)c(Cl)c2)cn1 | inactive: -13.9% | 
CN1CCN(c2ncc3nc(-c4ccccc4)c(=O)n(CCC#N)c3n2)CC1 |  | inconclusive: 31.6 µM [inhibitor, single point]
Cc1sc(/C=C2\C(=O)ON=C2c2ccccc2)cc1Br |  | active: 25.1 µM
CCCCCCCCCCCCCCCC(=O)N[C@@H](COP(=O)(O)O)C(=O)O |  | inconclusive: 31.6 µM [activator, single point]
COc1ccc(NCc2cc3ccc(OC)cc3n(CC(=O)Nc3cccc(OC)c3)c2=O)cc1 |  | inconclusive: 31.6 µM [inhibitor, single point]
COC(=O)c1ccc(Cl)c(NC(=O)c2ccc(-c3ccccc3)cc2)c1 |  | inconclusive: 39.8 µM [inhibitor, single point]
Cc1ccc(-c2cccc(-c3cc(=O)oc4ccc(C(C)(C)C)cc34)c2)cc1 |  | inconclusive: 11.2 µM [inhibitor, full curve, poor fit]
